Measurements: PMC2692298 (Science signaling, 2008)

Biological target: the molecule itself
Assay: nonreducing SDS-PAGE

B1: SDF1(L36C/A65C), covalently-locked symmetric dimer (ligand)
chain: not shown
modifications: intermolecular […] disulfide bonds between the two subunits
stoichiometry N: 2
